In the supplement of paper PMC4604168 (melanoma cell lines) one finds cell count data, which are given here for 32 molecules.

The list shows a part of the results. Most values come without repeats; read them as rough.
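Note: cells treated in 1,536-well plates, then fixed and DAPI-stained, with nuclei counted from automated high-throughput microscope images.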

The assay concerns A101D. Put plainly: cell count relative to DMSO control; melanoma cells; higher = more viable cells. The following applies: library dose: standard library concentration; 72 h.
In the case of `OCCn1cc(-c2cnc3nnn(Cc4ccc5ncccc5c4)c3n2)cn1` + C[C@@H]1CCN(C(=O)CC#N)C[C@@H]1N(C)c1ncnc2[nH]ccc12 [CP690550] (first compound 5 µM, partner dose 5 µM), the cell count worked out at 113%. Take `Cc1nc(Nc2ncc(C(=O)Nc3c(C)cccc3Cl)s2)cc(N2CCN(CCO)CC2)n1` [dasatanib] + NCC(=O)Nc1ccc(-n2nc(C(F)(F)F)cc2-c2ccc3c(ccc4ccccc43)c2)cc1 [OSU03012] (first compound 0.02 µM, partner dose 5 µM): the cell count stood at 50.1%. With `C[C@]1(c2nc3c(C(N)=O)cccc3[nH]2)CCCN1` [Veliparib] + CC(C)(C)c1cnc(CSc2cnc(NC(=O)C3CCNCC3)s2)o1 [SNS-032] (first compound 7 µM, partner dose 0.05 µM), the cell count was determined as 73.4%. Take `Cc1nc(Nc2ncc(C(=O)Nc3c(C)cccc3Cl)s2)cc(N2CCN(CCO)CC2)n1` [dasatanib] + Cc1ccc(NC(=O)c2cccc(N(C)C)c2)cc1NC(=O)c1ccc(O)cc1 [ZM336372] (first compound 0.02 µM, partner dose 10 µM): the cell count turned out to be 84.3%.

On to `C[C@]1(c2nc3c(C(N)=O)cccc3[nH]2)CCCN1` [Veliparib] + Cn1cncc1[C@@](N)(c1ccc(Cl)cc1)c1ccc2c(c1)c(-c1cccc(Cl)c1)cc(=O)n2C [tipifarnib] (first compound 7 µM, partner dose 0.05 µM), for which the cell count amounted to 55.7%. The molecule `OCCn1cc(-c2cnc3nnn(Cc4ccc5ncccc5c4)c3n2)cn1` + CCN(CC)CCCCNc1ncc2cc(-c3cc(OC)cc(OC)c3)c(NC(=O)NC(C)(C)C)nc2n1 [PD173074] (first compound 5 µM, partner dose 0.5 µM) registered a cell count of 107%. Molecule `Cc1nc(Nc2ncc(C(=O)Nc3c(C)cccc3Cl)s2)cc(N2CCN(CCO)CC2)n1` [dasatanib] + COc1cc2c(Oc3ccc4[nH]c(C)cc4c3F)ncnc2cc1OCCCN1CCCC1 [cediranib] (first compound 0.02 µM, partner dose 2 µM) yielded a cell count of 62.6%.

Consider `C[C@]1(c2nc3c(C(N)=O)cccc3[nH]2)CCCN1` [Veliparib] + CC1(C)NC(=O)N(c2ccc([N+](=O)[O-])c(C(F)(F)F)c2)C1=O [nilutamide] (first compound 7 µM, partner dose 5 µM), for which the cell count is 74.3%.

The molecule `OCCn1cc(-c2cnc3nnn(Cc4ccc5ncccc5c4)c3n2)cn1` + COc1cc2c(Oc3ccc4[nH]c(C)cc4c3F)ncnc2cc1OCCCN1CCCC1 [cediranib] (first compound 5 µM, partner dose 2 µM) had a cell count of 117%.

As for `Cc1nc(Nc2ncc(C(=O)Nc3c(C)cccc3Cl)s2)cc(N2CCN(CCO)CC2)n1` [dasatanib] + Cc1cc(N2CCOCC2)cc2[nH]c(-c3c(NC[C@@H](O)c4cccc(Cl)c4)cc[nH]c3=O)nc12 [BMS536924] (first compound 0.02 µM, partner dose 1 µM), the cell count worked out at 64.3%. In turn, `C[C@]1(c2nc3c(C(N)=O)cccc3[nH]2)CCCN1` [Veliparib] + C=CCn1c(=O)c2cnc(Nc3ccc(N4CCN(C)CC4)cc3)nc2n1-c1cccc(C(C)(C)O)n1 [MK1775] (first compound 7 µM, partner dose 0.1 µM) returned a cell count of 60.9%. In the case of `NC(=O)Nc1cc(-c2cccc(F)c2)sc1C(=O)N[C@H]1CCCNC1` + N#Cc1c(O)c2c(-c3ccc(-c4ccccc4O)cc3)csc2[nH]c1=O [A769662] (first compound 0.1 µM, partner dose 10 µM), the cell count was found to be 57.9%. For the molecule `Cc1nc(Nc2ncc(C(=O)Nc3c(C)cccc3Cl)s2)cc(N2CCN(CCO)CC2)n1` [dasatanib] + Cn1cc(/C=C2\C(=O)Nc3cccnc32)c2ccccc21 [GW441756] (first compound 0.02 µM, partner dose 2 µM), the cell count was found to be 93.3%. For the molecule `C[C@]1(c2nc3c(C(N)=O)cccc3[nH]2)CCCN1` [Veliparib] + O=C(Nc1cccc(Cl)c1)Nc1ncc(CCNc2ncnc3ccsc23)s1 [SNS314] (first compound 7 µM, partner dose 0.004 µM), the cell count came to 65.5%. Under `Cc1nc(Nc2ncc(C(=O)Nc3c(C)cccc3Cl)s2)cc(N2CCN(CCO)CC2)n1` [dasatanib] + Cn1c(Nc2ccc(C(F)(F)F)cc2)nc2cc(Oc3ccnc(-c4ncc(C(F)(F)F)[nH]4)c3)ccc21 [CHIR265] (first compound 0.02 µM, partner dose 0.4 µM) stands 51.4%; under `CN(C)S(=O)(=O)c1ccc2c(c1)/C(=C/c1cc3c([nH]1)CCCC3)C(=O)N2` + NCC(=O)Nc1ccc(-n2nc(C(F)(F)F)cc2-c2ccc3c(ccc4ccccc43)c2)cc1 [OSU03012] (first compound 2 µM, partner dose 5 µM), 28.9%; under `C[C@]1(c2nc3c(C(N)=O)cccc3[nH]2)CCCN1` [Veliparib] + O=C(CCCCCCC(=O)Nc1ccccc1)NO [vorinostat] (first compound 7 µM, partner dose 0.4 µM), 65.3%.

In turn, `CO[C@@H]1[C@H](N(C)C(=O)c2ccccc2)C[C@H]2O[C@]1(C)n1c3ccccc3c3c4c(c5c6ccccc6n2c5c31)C(=O)NC4` [Midostaurin] + CC(C)(C)c1cnc(CSc2cnc(NC(=O)C3CCNCC3)s2)o1 [SNS-032] (first compound 0.4 µM, partner dose 0.05 µM) returned a cell count of 46.1%.

In turn, `C=CCn1c(=O)c2cnc(Nc3ccc(N4CCN(C)CC4)cc3)nc2n1-c1cccc(C(C)(C)O)n1` + CN(NC(=O)CC(=O)NN(C)C(=S)c1ccccc1)C(=S)c1ccccc1 [STA4783] (first compound 0.1 µM, partner dose 0.03 µM) came in with a cell count of 46%. As for `C[C@]1(c2nc3c(C(N)=O)cccc3[nH]2)CCCN1` [Veliparib] + OCCn1cc(-c2cnc3nnn(Cc4ccc5ncccc5c4)c3n2)cn1 [PF04217903] (first compound 7 µM, partner dose 5 µM), the cell count came to 80.9%. `C=CCn1c(=O)c2cnc(Nc3ccc(N4CCN(C)CC4)cc3)nc2n1-c1cccc(C(C)(C)O)n1` + C[C@@H]1CCN(C(=O)CC#N)C[C@@H]1N(C)c1ncnc2[nH]ccc12 [CP690550] (first compound 0.1 µM, partner dose 5 µM): the cell count was 74.5%. Under `CO[C@@H]1[C@H](N(C)C(=O)c2ccccc2)C[C@H]2O[C@]1(C)n1c3ccccc3c3c4c(c5c6ccccc6n2c5c31)C(=O)NC4` [Midostaurin] + Cc1cc(N2CCOCC2)cc2[nH]c(-c3c(NC[C@@H](O)c4cccc(Cl)c4)cc[nH]c3=O)nc12 [BMS536924] (first compound 0.4 µM, partner dose 1 µM) stands 70.7%; under `C=CCn1c(=O)c2cnc(Nc3ccc(N4CCN(C)CC4)cc3)nc2n1-c1cccc(C(C)(C)O)n1` + NCC(=O)Nc1ccc(-n2nc(C(F)(F)F)cc2-c2ccc3c(ccc4ccccc43)c2)cc1 [OSU03012] (first compound 0.1 µM, partner dose 5 µM), 53%; under `NCC(=O)Nc1ccc(-n2nc(C(F)(F)F)cc2-c2ccc3c(ccc4ccccc43)c2)cc1` + COc1cc(N2CCC(N3CCN(C)CC3)CC2)ccc1Nc1ncc(Cl)c(Nc2ccccc2S(=O)(=O)C(C)C)n1 [NVP-TAE684] (first compound 5 µM, partner dose 0.4 µM), 60%. Turning to `CN(C)S(=O)(=O)c1ccc2c(c1)/C(=C/c1cc3c([nH]1)CCCC3)C(=O)N2` + O=C(O)c1ccc(-c2c[nH]c3ncc(-c4ccccc4)cc23)cc1C1CCCC1 [GSK650394] (first compound 2 µM, partner dose 0.8 µM), the cell count was 68.5%.

The molecule `C[C@]1(c2nc3c(C(N)=O)cccc3[nH]2)CCCN1` [Veliparib] + O=C(O)c1ccc(-c2c[nH]c3ncc(-c4ccccc4)cc23)cc1C1CCCC1 [GSK650394] (first compound 7 µM, partner dose 0.8 µM) displayed a cell count of 64.3%. Consider `C=CCn1c(=O)c2cnc(Nc3ccc(N4CCN(C)CC4)cc3)nc2n1-c1cccc(C(C)(C)O)n1` + Cc1cc(N2CCOCC2)cc2[nH]c(-c3c(NC[C@@H](O)c4cccc(Cl)c4)cc[nH]c3=O)nc12 [BMS536924] (first compound 0.1 µM, partner dose 1 µM), for which the cell count was 51.8%.

In the case of `CN(C)S(=O)(=O)c1ccc2c(c1)/C(=C/c1cc3c([nH]1)CCCC3)C(=O)N2` + CN(NC(=O)CC(=O)NN(C)C(=S)c1ccccc1)C(=S)c1ccccc1 [STA4783] (first compound 2 µM, partner dose 0.03 µM), the cell count turned out to be 62.6%. As to `C[C@]1(c2nc3c(C(N)=O)cccc3[nH]2)CCCN1` [Veliparib] + Cn1nnc2c(C(N)=O)ncn2c1=O [temozolomide] (first compound 7 µM, partner dose 10 µM), the cell count was determined as 63.4%. Under `Cc1nc(Nc2ncc(C(=O)Nc3c(C)cccc3Cl)s2)cc(N2CCN(CCO)CC2)n1` [dasatanib] + CN(NC(=O)CC(=O)NN(C)C(=S)c1ccccc1)C(=S)c1ccccc1 [STA4783] (first compound 0.02 µM, partner dose 0.03 µM) stands 44.7%; under `Cc1nc(Nc2ncc(C(=O)Nc3c(C)cccc3Cl)s2)cc(N2CCN(CCO)CC2)n1` [dasatanib] + CC(C)(C)c1cnc(CSc2cnc(NC(=O)C3CCNCC3)s2)o1 [SNS-032] (first compound 0.02 µM, partner dose 0.05 µM), 67.8%; under `Cc1nc(Nc2ncc(C(=O)Nc3c(C)cccc3Cl)s2)cc(N2CCN(CCO)CC2)n1` [dasatanib] + CN(C)S(=O)(=O)c1ccc2c(c1)/C(=C/c1cc3c([nH]1)CCCC3)C(=O)N2 [SU6656] (first compound 0.02 µM, partner dose 2 µM), 63.9%.
